# The other results are listed elsewhere or left out.
# Test system: PfSIP2 AP2 domain 1 (GST-tagged)
# Test: gcPBM binding intensity (ln(normalized median fluorescence intensity)); higher = stronger DNA binding
# Procedure, shortened: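 An Agilent 4 × 180k array of primer-extended double-stranded 36-bp intergenic genomic probes, with negative controls, was incubated for 1 h with GST-tagged P. falciparum DNA-binding domains expressed in E. coli. Alexa488 anti-GST antibody detected bound protein, scanned at 488 nm. Binding intensity is the highest Masliner-normalised natural-log median intensity across replicate spots of either probe orientation.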
row,Sequence,gcPBM binding intensity (ln)
1,ATATATGGGTAGTATACACACTGTATATTTAGGAAT [CACACA_site7357],6.91
2,GTATGAAAAAAATATGCATGCTAAATAATAAATGTT [TGCATGCA_site352],6.93
3,TATATATATATACATACATATAAAGTTACATAAACA [CACACA_negctrl_site432],9.43
4,GAACAAACAAAGAAAGAACACACATACACAATATAC [CACACA_site8918],7.13
5,TAGATTTTTTTACATTGTACATATTTTTTCTTATAG [XGTACX_site293],6.87
6,AAAACAAACGGACACACACACATATATATATATATA [CACACA_site5924],9.72
7,ACATGTAAATTTACATGTACATGTAACACTTAATAT [XGTACX_site4575],7.05
8,TACATATTTACTATCACACACACGATATATATAAAT [CACACA_site1242],7.36
9,ATACGAAAAAATAGACGTACTATGAAATAATAATTT [XGTACX_site8387],6.87
10,TACTTAAAAAAAAAAAAAATAAATATTATGTATTAT [CACACA_negctrl_site138],6.64
11,TAATATTTTAATTGTGTGCACATTAATATTATAAAA,9.3
12,TTTAGTGAGTTTGTTGTGCACTGAAAAAATTACAAT,10.5
13,TATATTATTTTTTGTGGTACATGTATTTTTACCTAA [XGTACX_site4348],7.48
14,ATATGCTATTAATTATGTACATATATATATATATAT [XGTACX_site4901],9.69
15,GTACATTATATATATACACACATACATAATAAAGAA [CACACA_site5528],7.33
16,GGACTATACAGTTATACACACACATATATATATAAT [CACACA_site7991],7.13
17,ATGCATACACTTATATGTACACATTTACATATTATT [XGTACX_site2841],7.09
18,AATAAATAAATATATTGTACATATATATATATATAT [XGTACX_site8627],9.67
19,CGAAAGGAAATATAACGTACATAAGATTATATTCAC [XGTACX_site3868],6.88
20,ATGAACAAGGGGCACACACACATTATGACTAATTTA [CACACA_site3204],7.6
21,TATTAAAAGAAAAAAAAAAAAAAATTAATACATATA [XGTACX_negctrl_site582],6.62
22,TATTAATATATAGTAGTGCAATAAAGATATACTGAA,8.3
23,AACATACTCACGAACATACACACGGACATACATACG [CACACA_site603],7.11

row,Sequence,gcPBM binding intensity (ln)
1,CTTAATTTTTTTTAATGTACATACATATAAACCTTT [XGTACX_site2233],7.15
2,AGTTATATGTACTACACACGTACACAAAATAAGATA [CACACA_site3719],7.71
3,AAAATTAAAAATAACACACACATATTTATATTTATA [CACACA_site7329],6.87
4,AAGGAGAAATATTGCACACGTGCAAAATGGTATGAG [CACACA_site259],9.43
5,TATTCTTTTATGAATACACACATATACGAAAATATT [CACACA_site6585],6.95
6,AAATGTTAAAAAGAGAAAAACAATAAAAAACAATTA [CACACA_negctrl_site1044],6.58
7,AAAAGGTTATCAAAATGTACGAAATGTTACAAAAAT [XGTACX_site6215],7.01
8,AGGTGTCATAGATGCACACAAAAGTAACACGCACCT [CACACA_site4418],9.65
9,ATAACCTAATAATACACACACATGAATATAAATAAC [CACACA_site6584],7.28
10,ATATATATTTTATACGCATGTAATTATTATGTGGTC [TGCATGCA_site45],7.31
11,AAACAATTTGGGTGTACACATGATACGTTCGATGAG [CACACA_site5160],7.18
12,ATATTATACATTTATACACACATAAAAAGACAAAAA [CACACA_site3565],7.2
13,TGTAATATTTTTCATGCATGCTCTTCTTTTACATAA [TGCATGCA_site144],6.96
14,ATAATTTATATTACTTGTACATATTTATATGAACGA [XGTACX_site3610],6.86
15,TATATTAAACAATATACACACATTAATGTATCCATA [CACACA_site5523],6.86
16,TTATATATATATATATGTACACATATATAACATGAT [XGTACX_site6643],7.43
17,CATAAATAATATATTTGTACGAATAAAATTTGTTCA [XGTACX_site3445],6.74
18,TAAAACAATATAAAATGTACAGAATTTTTTTTTCTT [XGTACX_site6820],6.7
19,TTCTTTTATGATAATTGTACCCTTTTTAAAAAGAAA [XGTACX_site7815],7.27
20,ATAATGAAAAGAAAGGGTACAAAAAAAAAAAAAAAT [XGTACX_site3350],6.89
21,AACTGATTATTTTTTTGTACATATATAATAATATAT [XGTACX_site5953],7.13
22,TTTTTTTTCAATGGCACACATTTTAGATTTATGCTT [CACACA_site4735],7.88
23,TTTTTATTTATTCTCTTTGTATTATAAAATAAAAGC [XGTACX_negctrl_site253],7.06

row,Sequence,gcPBM binding intensity (ln)
1,ATATATATATAATGTTGTACATAAATATTATATTTA [XGTACX_site5225],8.82
2,GGAAAAATATAATATGCATGTTATTATTTTTTTATA [TGCATGCA_site836],6.77
3,TATGTATATACATAAACATGCAAAAACAATATCTTA [TGCATGCA_site950],6.85
4,TATTTATTTATTTAATGTACAAAAGAACAAGAATTT [XGTACX_site2248],6.95
5,TTCTTCTGTTTTATTACACACCATTTTGTGTATACA [CACACA_site7059],7.42
6,TCTTAATCGTATTATTACTATAATTATATAATATTT [CACACA_negctrl_site1594],7.13
7,ATATATATATTATATAGTACAGAGTATACTATTATA [XGTACX_site1893],7.87
8,CAAAAAGGAATGTATGCACACAATTGATTTTAACTC [CACACA_site1468],8.51
9,AACGATATATGTACTACACACATTATGTCATCCTAT [CACACA_site2464],7.21
10,GATCTAAAAACAAGGTGTACAAGAAAAAAAAAAAAA [XGTACX_site7577],6.98
11,ACAAAAGGGGAATACACACACATATATATATATATA [CACACA_site2215],9.33
12,GCCCACACGAACCATGCATGCCACGATATAAACCAC [TGCATGCA_site322],7.24
13,TTTTTTACAGAAAAATATTAAAATTATAAATGTGAA [GTGCAC_negctrl_site451],7.03
14,TAATATATATATATGGTGCATTTAATTTATATATAA,10.8
15,TATGAAATTTTAATTACACACAGGAAAATAAAATGT [CACACA_site8430],6.96
16,TTATAATATATATAAAAGAAAAAAAATTATAATATA [CACACA_negctrl_site90],6.69
17,TTATTTTTCTTTATTGGTACACACGAAAAAAAAATT [XGTACX_site6482],7.27
18,ATATATATTTTTAATTGTACAGAATTAAAAATATTG [XGTACX_site1967],6.92
19,CTTTAACCATATATGTGTACGTATTTTATTCATATT [XGTACX_site6212],7.42
20,AAAAAAAAAAAAAGCTGTACAATTAAAGACAAACCT [XGTACX_site8610],7.14
21,AAGAAGTGGAAAATATACTCCACATATATATATGTG [CACACA_negctrl_site304],7.56
22,AAAAAACAATTTGTGTGTACACATGATACGTTCGAT [XGTACX_site4112],7.25
23,TATATAGTAAATATTTGTACATAATAAAATATATGT [XGTACX_site7873],7

row,Sequence,gcPBM binding intensity (ln)
1,ATCTTAATTTTTGAAGGTACACACTAATATATTAAA [XGTACX_site2292],7.12
2,ATATTTTATTATATAGGTACACATAATTTCATGTAA [XGTACX_site415],7.11
3,AATAAATAAAAATGCACACAGTTAACATGTTGAATT [CACACA_site4795],7.07
4,TTTTGTACATCTTTTGCACACGTAATGTTATTATAA [CACACA_site1259],7.34
5,TTTTTTTTTTATTAATGTACAAGATATATAATGTTA [XGTACX_site4809],6.84
6,TATAATATAAAAATGAGTACATAGATAATAATATTT [XGTACX_site2376],7.19
7,AATGATACACATATATGTACATATATATATATATAT [XGTACX_site5391],9.46
8,TGCAATATATCAAAGTGTACATGCAATAAAAAAAAA [XGTACX_site652],7.05
9,ATATGGATTATACATACATGCATACATACATACATA [TGCATGCA_site475],7.1
10,TATATACATATATGCACACAAAAAAATATATATTTT [CACACA_site1729],7.3
11,AAATGTAGAAAAAGTTGTACACTGTTTCAAAAATAA [XGTACX_site1063],6.97
12,AAAATTTAATATAATGCACACATAAAACAAAAACAA [CACACA_site8071],8.2
13,TTTAAAGTTTTATACACACACCAAAGTTATTCTAAT [CACACA_site6432],6.78
14,CAATGAAAAATAATGAGTACATAGTTAATAAAGATA [XGTACX_site72],6.97
15,ATAATTAAAATTAAATGTACTTTTTTATATATTTTT [XGTACX_site2209],6.82
16,AATTTCTTTTTCGATATACACACTGTATGTGTCTAA [CACACA_site3975],6.94
17,AACGTGTATTTATATTGTACACATTCATACATCAAA [XGTACX_site3644],7.1
18,GTAGTGGTTGAATATACACACATATATATATATATA [CACACA_site2651],9.4
19,AGATAATAGGTTACTTGTACATATAAATAAATATAT [XGTACX_site158],6.96
20,ATATTAATTTCTCATGCATGTTCTACCCAATTGTAA [TGCATGCA_site355],6.99
